From PubChem BioAssay AID1347120 (National Center for Advancing Translational Sciences (NCATS), 2019)
Where “and” joins values, the source holds several entries; their conditions need not be identical. Equal values may be shown once. In all, about 390,000 compounds went through this assay and about 930 (0.24%) were called active. The shares of active, inactive and inconclusive entries below differ from those in the screen. Calls follow the shape of the dose curve; as a rule, active = well fitted activation curve with a large enough effect; inconclusive = small, poorly fitted or top-dose-only effect; inactive = no such curve, though single readings can be large or run the other way. A potency beside an inconclusive call is a rough fit, not a confirmed value.

Test: qHTS for Suppressors of FUS Proteinopathy: Primary screen using FUS-linked yeast assay; also: nearly all actives have a fitted effect of over 55% in size;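 as to growth rescue (activation): plate controls were DMSO vehicle for no effect and reference control for full effect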
Conditions: S. cerevisiae FUS-expressing, OD600, 24 h; Potency: growth rescue; growth rescue (activation): at 76.6 µM (top of the series)
How it was run: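 Read-out: OD at 600 nm after 24hr at 30C, reporting rescue of FUS-induced yeast toxicity. Cells at OD 0.005 in galactose (2%) minimal medium; compounds tested in a dilution series; CP55940 titration from 92uM final as control.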
Potency is read from the fitted curve at half-maximal effect; tags tell the direction and shape of the fitted curve.

Row | SMILES | Potency | growth rescue (activation)
1 | COc1ccc(C2=CC(c3c(C)nn(-c4ccccc4)c3Cl)n3nnnc3N2)cc1OC (stereo not drawn) | inconclusive: 22.4 µM [activator, partial curve] | –
2 | Cc1ccc(C)c(S(=O)(=O)c2nnn3c2nc(NC2CCCC2)c2sccc23)c1 | inconclusive: 31.6 µM [activator, single point] | –
3 | CC1CCC(NC(=O)c2ccc3c(c2)N(Cc2ccccc2F)C(=O)c2ccccc2S3(=O)=O)CC1 (stereo not drawn) | inconclusive: 25.1 µM [activator, partial curve] | –
4 | CCOC(=O)[C@H]1[C@H]2COc3ccc(OC)cc3[C@@H]2N2C(=O)c3cc(C)ccc3NC(=O)[C@@]12C | inactive | –
5 | Cc1cccc(NCc2ccccc2O)n1 | inconclusive: 5.62 µM [activator, full curve, poor fit] | –
6 | COc1ccc(Cl)cc1Cn1c(C)c(C(=O)NCc2cccc(C(F)(F)F)c2)sc1=O | inconclusive: 35.5 µM [activator, partial curve, poor fit] | –
7 | COC(=O)[C@]12C[C@H](CC(=O)N3CCN(C(=O)c4ccco4)CC3)C(=O)N(CCC3=CCCCC3)C1=C[C@H](C(C)C)O[C@@H]2C1CC1 | inconclusive: 28.2 µM [activator, partial curve] | –
8 | CCOC(=O)c1cnc2ccc(OCC)cc2c1N1CCN(c2ccccc2)CC1 | inconclusive: 44.7 µM [activator, single point] | –
9 | CC(=O)c1ccc(NC(=O)c2nc(-c3ccccc3)n(-c3ccc(C)cc3)n2)cc1 | inconclusive: 17.8 µM [activator, partial curve, poor fit] | –
10 | O=C1C2ON(c3ccccc3)C(c3ccccn3)C2C(=O)N1c1ccc(Br)cc1 (stereo not drawn) | inactive | –
11 | C/C=C\C=C/C(=O)Nc1cccc(C2=NOC3(C2)C[C@H](C(N)=O)N(C(=O)c2ccc(OC)cc2)C3)c1 (stereo partly drawn) | inconclusive: 31.6 µM [activator, single point] | –
12 | Cc1cc(C(=O)CSc2nnc(Nc3ccccc3)s2)c(C)n1CC1CCCO1 (stereo not drawn) | inconclusive: 5.62 µM [activator, full curve, poor fit] | –
13 | Cc1ccc(Cl)cc1NC(=O)CN1C(=O)c2ccccc2Sc2ncccc21 | inconclusive: 44.7 µM [activator, single point] | –
14 | O=C(N/N=C1\C2CN3CCN(C2)CC1(c1ccccc1)C3)Nc1ccccc1 | inactive | –
15 | CCN(CC)C(=O)c1cccc(-c2csc(C(C)(O)c3cccc(F)c3)n2)c1 (stereo not drawn) | inconclusive: 20 µM [activator, partial curve] | –
16 | Cc1cc(C2=NNC(=NCCc3ccccc3)SC2)c(C)n1-c1c(C)n(C)n(-c2ccccc2)c1=O | inconclusive: 14.1 µM [activator, partial curve] | –
17 | CCCCCCCCCCOC(=O)Cn1c(COc2ccccc2C)[n+](C)c2ccccc21 | active: 39.8 µM | –
18 | Cc1ccc(NC(=O)CSc2nc(N)cc(=O)[nH]2)cc1S(=O)(=O)N1CCCCC1 | inconclusive: 35.5 µM [activator, partial curve, poor fit] | –
19 | Cc1ccc(NC(=O)c2oc3ccccc3c2COC(C)C)cc1S(=O)(=O)N1CCOCC1 | inconclusive: 14.1 µM [activator, partial curve, poor fit] | –
20 | COc1ccccc1NC(=S)N(Cc1ccco1)Cc1cc2cccc(C)c2[nH]c1=O | inconclusive: 15.8 µM [activator, partial curve, poor fit] | –

Row | SMILES | Potency | growth rescue (activation)
21 | C[C@@H]1CN([C@@H](C)CO)C(=O)c2cc(NC(=O)Nc3ccccc3)ccc2O[C@H]1CN(C)C(=O)Nc1cccc2ccccc12 | inconclusive: 31.6 µM [activator, single point] | –
22 | CCn1c(C)c(C)c2cc(C(=O)N3CCN(c4ccccc4)CC3)ccc21 | inconclusive: 50.1 µM [activator, single point] and inconclusive: 44.7 µM [activator, single point] | –
23 | CCN(C(=O)CCS(=O)(=O)c1cc2c(cc1C)NC(=O)CO2)c1cccc(C)c1 | inactive | –
24 | CCOC(=O)Cn1nc(/C=C/c2ccc(C)cc2)ccc1=O | inactive | –
25 | C[C@@H]1CN([C@H](C)CO)S(=O)(=O)c2ccc(C#CC3CCCCC3)cc2O[C@H]1CN(C)C(=O)Cc1ccncc1 | inconclusive: 25.1 µM [activator, single point] | –
26 | O=C(CCNS(=O)(=O)c1ccc(Br)cc1)NCc1ccc(F)cc1 | inconclusive: 8.91 µM [activator, partial curve] | –
27 | O=C(O)c1cc(S(=O)(=O)N2CCN(C(=O)c3ccco3)CC2)c(Cl)cc1Cl | inactive | –
28 | CCOC(=O)C1=C(C)N=c2sc(=Cc3cc(Cl)c(OCC(=O)O)c(Cl)c3)c(=O)n2C1c1cccc(OC)c1 (stereo not drawn) | inconclusive: 50.1 µM [activator, single point] | –
29 | COc1cc(NC(=O)c2ccc(-c3nc(CSc4ccccc4)c(C)o3)cc2)cc(OC)c1 | inconclusive: 7.08 µM [activator, full curve, poor fit] | –
30 | Cc1ccc(S(=O)(=O)N2CCOCC2)cc1C(=O)Nc1ccc(N2CCCCCC2)cc1 | inconclusive: 35.5 µM [activator, single point] | –
31 | CC1(C)CC(=O)C=C(Nc2ccc(OCC(F)(F)C(F)F)cc2)C1 | inactive | –
32 | CCCCCCSc1ccc([C@@H]2[C@H]3C(=O)N(CC)C(=O)[C@H]3[C@]3(C(=O)OC)CCCCN23)cc1OC | inconclusive: 25.1 µM [activator, partial curve] | –
33 | COc1ccc(C2C(C(=O)c3cccs3)=C(O)C(=O)N2c2cccc(C)n2)cc1OC (stereo not drawn) | inconclusive: 50.1 µM [activator, single point] | –
34 | CCOc1ncccc1C(=O)Nc1cc(C(F)(F)F)ccc1N1CCOCC1 | inconclusive: 5.01 µM [activator, single point] | –
35 | CNC(=O)c1csc(Cc2c(Cl)sc3ccc(Cl)cc23)n1 | inconclusive: 50.1 µM [activator, single point] | –
36 | O=C(Nc1ccc2ccccc2c1)c1cnccn1 | inconclusive: 31.6 µM [activator, partial curve, poor fit] | –
37 | COc1ccc2c(c1)C(=O)N1[C@H]3c4cc(Cl)ccc4OC[C@@H]3[C@H](c3ccccc3)[C@]1(C)C(=O)N2 | inconclusive: 12.6 µM [activator, partial curve] | –
38 | Cc1ccc(NC(=S)N/N=C/c2c(C)[nH]c3ccccc23)cc1 | inconclusive: 20 µM [activator, single point] | –
39 | COc1cc2c(cc1NC(=O)CCCCCN1C(=O)CCC1=O)oc1ccccc12 | inconclusive: 28.2 µM [activator, single point] | –
40 | FC(F)Oc1ccc(NC(=S)NNc2ccnc3cc(Cl)ccc23)cc1 | inconclusive: 31.6 µM [activator, single point] | –

Row | SMILES | Potency | growth rescue (activation)
41 | Cc1cc(C)nc(OC(C(=O)O)C(OCCc2ccccc2)(c2ccc(F)cc2)c2ccc(F)cc2)n1 (stereo not drawn) | inconclusive: 50.1 µM [activator, single point] | –
42 | C[C@H]1CN([C@@H](C)CO)C(=O)c2cc(NC(=O)Nc3cccc4ccccc34)ccc2O[C@@H]1CN(C)Cc1ccc(-c2ccccc2)cc1 | inconclusive: 31.6 µM [activator, single point] | –
43 | CC(C)=C1C2CCC1C1C(=O)N(NC(=O)COc3ccc(C(C)(C)C)cc3)C(=O)C21 (stereo not drawn) | inconclusive: 20 µM [activator, single point] | –
44 | O=C(NCCc1ccc(Cl)cc1)c1nnc(Cc2ccc(Cl)cc2Cl)o1 | inactive | –
45 | OC(CCN1CCOCC1)c1ccccc1 (stereo not drawn) | inactive | –
46 | COC(=O)[C@]12C[C@H](CC(=O)NCc3ccc(OC)c(OC)c3)C(=O)N(Cc3ccc(Cl)cc3Cl)C1=C[C@H](COCc1ccccc1)O[C@@H]2C | inconclusive: 25.1 µM [activator, partial curve] | –
47 | COc1ccc(-c2cc(C(F)(F)F)c(C#N)c(SCC(=O)Nc3nc(C)co3)n2)cc1 | – | inconclusive: 69.7% [activator]
48 | COc1ccc(-c2nn(Cc3ccccc3)cc2C(=O)N2CCN(c3ncccn3)CC2)cc1OC | inactive | –
49 | COC(=O)c1cc(NC(=O)NC2CCCCN(Cc3ccc(Cl)cc3)C2=O)cc(C(=O)OC)c1 (stereo not drawn) | inactive | –
50 | Cc1ccc(S(=O)(=O)N2C[C@@H](C)[C@]3(C2)[C@H](O)[C@H](OC(=O)Nc2cccs2)C[C@H]2C(=O)N(c4ccccc4)C(=O)[C@H]23)cc1 | inconclusive: 35.5 µM [activator, single point] | –
51 | COc1ccc(NC(=S)N2CCN(C(c3ccccc3)c3ccccc3)CC2)c(OC)c1 | inconclusive: 39.8 µM [activator, partial curve, poor fit] | –
52 | O=S(=O)(c1c(Cl)cc(Br)cc1Cl)N1CCN(C(=S)NC2CC2)CC1 | inactive | –
53 | c1ccc(Cn2ncc3c(N4CCN(C(c5ccccc5)c5ccccc5)CC4)ncnc32)cc1 | inconclusive: 31.6 µM [activator, partial curve, poor fit] | –
54 | CCOC(=O)C1=CCN(S(=O)(=O)c2cccc(Cl)c2)C1c1ccc(Br)cc1 (stereo not drawn) | inconclusive: 20 µM [activator, partial curve] | –
55 | Cc1nn(C)c(C)c1NC(=O)COc1ccc(Cl)cc1 | inactive | –
56 | COc1cc2c(cc1/C=C/C(=O)O)OC(C)C2 (stereo not drawn) | inactive | –
57 | CCOC(=O)[C@@H]1[C@H]2COc3ccc(Br)cc3[C@@H]2N2C(=O)N(c3ccc(C)cc3)C(=O)[C@]12C | inconclusive: 14.1 µM [activator, partial curve] | –
58 | C=CCOC(=O)c1cc(-c2ccc(/C=C3\C(=O)NC(=O)C(C#N)=C3C)o2)ccc1Cl | inconclusive: 12.6 µM [activator, partial curve, poor fit] | –
